Measurements as given in patent US20180221313A1, “USE OF HYDROXYCARBAMIDE FOR PREVENTING RETINAL NONPERFUSION” (priority 2015, published 2018).

What was measured:
[1] = human, in vivo
Method: At D15 (W2), D30 (W4), D45, D60 and at M3 (W13), M4, M5 and M6 (W26): a hematological profile (CBC, reticulocytes) is prepared, to monitor the hematological tolerance of the treatment.
The main objective of the three physician visits at M1 (W4), M3 (W13) and M6 (W26) is to evaluate treatment compliance and tolerance during the study.
Furthermore, blood tests are important in order to control the hematological tolerance of the treatment.
The follow-up visits took place 13 days (W2/D15), 27 days (W4/M1) and 108 days (W13/M3) after initiation of treatment.

[2] = tested on: sickle-cell disease patients; details: cited from earlier work
mouse L1210 leukemia = details: in vivo; cited from earlier work
[3] = tested on: central retinal vein occlusion (CRVO) patient; assay: Clinical study: ophthalmological follow-up (ETDRS visual acuity, OCT, fluorescein angiography, angio-OCT, fundus) of a CRVO patient treated orally; details: for average macular volume (OCT): 6.12 mm^3 at D-1; for average central retinal thickness (OCT): 316 μm at D-1
CRVO patients = details: cited from earlier work

Q: For `NC(=O)NO` [hydroxycarbamide], which “clinical tolerance of the treatment” value [1] is on record?
A: perfect

Q: And the “thrombocytopenia (platelet count)” value ([1]; 20 mg/kg/day)?
A: 60,000 /mm^3

Q: What about the “toxicity of oral treatment at the doses used” value ([1]; po) of the same molecule?
A: minimally toxic

Q: What about the “probability of 10-year survival” value ([2]; 17-year follow-up, 131 HC patients, 65% for non-HC patients, p=0.001) of the same molecule?
A: 86%

Q: And the “lower death rate than patients who did not receive HC” value ([2]; 17.5-year follow-up of the MSH study, sickle-cell disease)?
A: 40%

Q: And the “activity against mouse L1210 leukemia” value (mouse L1210 leukemia)?
A: active

Q: What about the “improved visual acuity (change in ETDRS letters)” value ([3]; D-1 to W13) of the same molecule?
A: +11 ETDRS letters

Q: And the “reduction in average central retinal thickness” value ([3]; D-1 to W13)?
A: 35 μm

Q: What about the “hemorrhages at examination of the fundus of the left eye” value (shortened to “hemorrhages at examination”) ([3]; W2 visit) of the same molecule?
A: reduction in hemorrhages

Q: What about the “visual acuity (ETDRS scale) of the left eye” value ([3]; W2 visit, 20 mg/kg/day Siklos orally, one patient, 71 letters at D-1) of the same molecule?
A: 73 letters

Q: What about the “average macular volume (OCT)” value ([3]; W2 visit) of the same molecule?
A: 5.6 mm^3

Q: And the “average central retinal thickness (OCT)” value ([3]; W2 visit)?
A: 300 μm

Q: What about the “circulation times in the inferior hemi-vein (fluorescein angiography)” value ([3]; W4 visit) of the same molecule?
A: improvement in circulation times

Q: What about the “hemorrhages at examination” value ([3]; W4 visit) of the same molecule?
A: reduction in hemorrhages

Q: What about the “nonperfusion zone by retinal fluorescein angiography” value ([3]; W4 visit) of the same molecule?
A: absence of a nonperfusion zone

Q: What about the “visual acuity (ETDRS scale) of the left eye” value ([3]; W4 visit, 20 mg/kg/day orally, one patient, 71 letters at D-1) of the same molecule?
A: 77 letters

Q: What about the “average macular volume (OCT)” value ([3]; W4 visit) of the same molecule?
A: 5.48 mm^3

Q: And the “average central retinal thickness (OCT)” value ([3]; W4 visit)?
A: 293 μm

Q: And the “circulation times in the inferior hemi-vein (fluorescein angiography)” value ([3]; W13 visit)?
A: normalization of circulation times

Q: And the “hemorrhages at examination” value ([3]; W13 visit)?
A: disappearance of hemorrhages

Q: And the “nonperfusion zone by retinal fluorescein angiography” value ([3]; W13 visit)?
A: absence of a nonperfusion zone

Q: And the “average macular volume (OCT)” value ([3]; W13 visit)?
A: 5.23 mm^3

Q: And the “average central retinal thickness (OCT)” value ([3]; W13 visit)?
A: 281 μm

Q: And the “left visual acuity (ETDRS)” value ([3]; W13 visit, dose reduced to 15 mg/kg/d, one patient, 71 letters at D-1)?
A: 82 letters

Q: And the “change in the area of the CAZ” value ([3]; during treatment)?
A: no significant change

Q: With `CC(=O)CC(c1ccccc1)c1c(O)c2ccccc2oc1=O` (stereo not drawn) [warfarin] as the molecule, how does the “efficacy of systemic antithrombotic treatment in CRVO patients” value (CRVO patients) read?
A: ineffective, even harmful

Q: With `CC(=O)Oc1ccccc1C(=O)O` [aspirin] as the molecule, how does the “efficacy of systemic antithrombotic treatment in CRVO patients” value (CRVO patients) read?
A: ineffective, even harmful
